From PubChem BioAssay (NCI)
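Growth conditions: 96-well plates. Treatment: test compound, 48 hours, 5 concentrations. Analysis: linear interpolation between bracketing concentrations; unreached endpoints set to highest concentration. Abbreviation: GI50, concentration required for 50% inhibition of growth. TGI marks complete inhibition of growth.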

Tested on: NCI-H322M lung
Test: DTP human tumour cell line panel, 48 h

## CC1(C)C2CCC1(CC(=O)O)C(Cl)C2 (configuration not stated)
  TGI: > 100 µM

## C=C(CN1CCN(c2cccc(F)c2)CC1)c1ccc(C(=O)Nc2ccccc2N)cc1
  GI50: 4.3 µM
  TGI: > 100 µM

## CN1OC2OC(=O)OC2[C@H]1[C@H]1O[C@H](c2ccccc2)OC1(C)c1cc(OC(=O)c2ccccc2)ccc1OC(=O)c1ccccc1 (some centres not stated)
  TGI: > 50 µM

## Cn1c(=O)c2nc(N3CCCCC3)cnc2n(C)c1=O
  TGI: > 100 µM

## ClC[Si]12OCCN(CCO1)CCO2
  TGI: > 100 µM

## C/C(=N/N)c1ccc2[nH]c3c(C)cc([N+](=O)[O-])c(C)c3c2c1
  TGI: 28.9 µM

## [N-]=[N+]=NC1=C(c2ccccc2)C(=O)c2cccc3cccc1c23
  TGI: > 100 µM

## COc1ccc(-c2nocc2-c2cc(OC)c(OC)c(OC)c2)cc1
  GI50: 0.666 µM
  TGI: > 100 µM

## COc1cc2c3c(n(CCCCl)c(=O)c2cc1OC)-c1ccc(C#N)cc1C3=O
  GI50: 69.5 µM
  TGI: > 100 µM

## O=C(O)C1OC(Oc2cc(O)c3c(=O)cc(-c4ccc(O)cc4)oc3c2)C(O)C(O)C1O (configuration not stated)
  TGI: > 100 µM

## CC1=NN(C(=O)Cc2ccccc2)C(=O)/C1=C\c1ccco1
  TGI: > 100 µM

## CC1=CC2C(C(C)C)CC1C1C(=O)OC(=O)C21 (configuration not stated)
  TGI: > 100 µM

## N=c1oc2c(Cl)cc(Cl)cc2cc1C(=O)Nc1ccccn1
  TGI: > 100 µM

## CC1=C(c2cc(C(=O)Nc3nccs3)nc(NC#N)n2)Sc2ccccc2N1
  TGI: > 100 µM

## CCSc1nc2n(c(=S)n1)CCN2C
  TGI: 51.7 µM

## CC[C@]12C=CCN3CCC4(c5cc([C@@]6(C(=O)OC)CC7CN(CCc8c6[nH]c6ccccc86)C[C@@H]6CCC[C@H]76)c(OC)cc5N(C)C4[C@](O)(C(=O)OC)C1OC(C)=O)C32 (some centres not stated)
  TGI: > 10 µM

## CC1(C)CC[C@]2(C(=O)O)CC[C@]3(C)C(=CC[C@@H]4[C@@]5(C)CC[C@H](OC6OC(CO)C(O)C(O)C6OC6OC(CO)C(O)C(O)C6O)C(C)(C)[C@@H]5CC[C@]43C)[C@@H]2C1 (some centres not stated)
  TGI: 28 µM

## COC(=O)C1C2CCCN2OC1(C)CO (configuration not stated)
  TGI: > 100 µM

## NC(N)=Nc1nc2ccccc2[nH]1
  GI50: 66.3 µg/mL
  TGI: 123 µg/mL

## COc1cc(/C=C(\C#N)c2ccccn2)cc(Br)c1O
  TGI: > 100 µM

## COC(=O)c1scc(N)c1-n1ccc(=O)[nH]c1=O
  TGI: > 100 µM

## COc1cc(-c2cc(CCC(=O)Nc3ccccc3[N+](=O)[O-])n(-c3ccc([N+](=O)[O-])cc3[N+](=O)[O-])n2)ccc1O
  TGI: > 10 µM

## COc1ccc(Nc2ncccc2C(=O)NCc2cn(Cc3cccc(Oc4ccccc4)c3)nn2)cc1
  GI50: 5.24 µM
  TGI: > 100 µM

## COc1cccc(-n2c(N)c(-c3nc4cc(C(F)(F)F)ccc4s3)c3ccc([N+](=O)[O-])cc3c2=O)c1
  TGI: > 100 µM

## O=C(/C=C/c1cccnc1)c1ccccc1O
  GI50: 28.1 µM
  TGI: 89.9 µM

## CCOC(=O)c1cc(-c2ccc(Cl)cc2)c([N+](=O)[O-])n1C
  TGI: > 10 µM

## CC1=C(C(=O)Nc2ccccc2C)C(c2ccc(C3C(C(=O)Nc4ccccc4C)=CNC=C3C(=O)Nc3ccccc3C)cc2)C(C(=O)Nc2ccccc2C)=C(C)N1
  TGI: 32.2 µM

## Cc1nc2cc(N)c(Cl)cc2[nH]1
  TGI: > 100 µM

## CCNCCNC(=O)c1ccc(Br)cc1
  TGI: > 100 µM

## C=C1C(=O)OC2/C=C(\C)C3OC3/C=C(/C(=O)OC)C(OC(C)=O)C(OC(=O)C(C)(O)C(C)OC(C)=O)C12 (configuration not stated)
  TGI: 20.7 µM

## CC(C)CC(=O)NS(=O)(=O)c1ccccc1
  TGI: > 100 µM

## c1ccc2c(c1)C(=Nc1ccc(N=C3c4ccccc4-c4ccccc43)cc1)c1ccccc1-2
  TGI: > 100 µM

## COC(=O)C1CCC(=O)N1C(c1ccc2c(c1)OCO2)c1ccc2c(c1)OCO2 (configuration not stated)
  TGI: > 100 µM

## CC1(C)OC(=S)N(c2ccccc2)C12C=Cc1cc3ccccc3cc1O2 (configuration not stated)
  TGI: > 100 µM

## CC(Oc1ccc2cc(C(=O)c3ccccc3)c(=O)oc2c1)C(=O)O (configuration not stated)
  TGI: > 100 µM

## CSc1ccc2c(cc1=O)[C@@H](NC(=O)c1ccc(F)cc1)CCc1cc(O)c(O)c(O)c1-2
  TGI: > 100 µM

## COc1ccc(Cn2c(Br)c3c(c2-c2cc(OC)c(OC)c(OC)c2)CCc2sc(NC(C)=O)nc2-3)cc1
  GI50: 8.08 µM
  TGI: > 100 µM

## Nc1nc2c(c3cnccc13)C(c1cccc(Cl)c1)Cc1cnccc1-2 (configuration not stated)
  GI50: 0.609 µM
  TGI: 18.5 µM

## CC[C@]12CCCN3CC[C@]4(C(=C(C(=O)OC)C1)Nc1ccccc14)[C@@H]32
  GI50: 26.6 µM
  TGI: > 100 µM

## CC(NC(=O)C(N)CC(=O)O)NC(=O)N1CCCC1 (configuration not stated)
  TGI: > 100 µM

## COC(=O)NN1C(C)=C(C(=O)OC)C2(CCOC2=O)C1(C)O (configuration not stated)
  TGI: > 100 µM

## O=C(O)CNS(=O)(=O)c1ccc(NC(=O)Nc2ccccc2)cc1
  TGI: > 100 µM

## CC(C)[C@@H]1CC[C@@H]2[C@@H]1[C@H](OC(=O)/C=C/c1ccccc1)[C@]1(C(C)C)C[C@@H](OC(=O)CO)[C@@]2(C)O1
  GI50: 5.9 µM
  TGI: 10.7 µM

## O=C(O)c1cc(Sc2ccc([N+](=O)[O-])c(C(=O)O)c2)ccc1[N+](=O)[O-]
  TGI: > 100 µM

## O=C(Nc1ccc(Br)cc1F)c1cc(Br)ccc1O
  GI50: 0.442 µM
  TGI: 9.15 µM

## Cn1cnc([N+](=O)[O-])c1Sc1nc(N)nc2c1ncn2Cc1ccccc1
  TGI: 62.9 µM

## COc1ccc(CNc2nc(NCc3ccc(OC)cc3)c3n[nH]c(C(C)C)c3n2)cc1
  GI50: 8.56 µM
  TGI: 33.4 µM

## CC(O[Si](C)(C)C)C1C=CC(C)n2c(=O)n(-c3ccccc3)c(=O)n21 (configuration not stated)
  TGI: > 100 µM

## COc1cc(C2C(C#N)=C(N)Oc3cc(O)ccc32)cc(OC)c1OC (configuration not stated)
  GI50: 2.94 µM
  TGI: > 100 µM
